In PubChem BioAssay AID330 (DTP/NCI, 2004):
Where “and” joins values, the source holds several entries; their conditions need not be identical. Identical values can stand only once. Further values from the same series stand in other lists. Toxic doses and inconclusive results are not listed.

Tested on: P388 leukemia ip, CD2F1 mice, survival T/C
Assay: NCI In Vivo Anticancer Drug Screen. Data for tumor model P388 Leukemia (intraperitoneal) in CD2F1 (CDF1) mice
Details: endpoint: median survival time, higher = longer survival
Protocol: The antitumor activity of compounds was measured in mice bearing transplantable tumors. Survival or tumor size were measured and the results are expressed as the measurement made in the treated group (T) divided by the measurement made in the vehicle treated control group (C). The tumor model used in this assay is P388 Leukemia (intraperitoneal) in CD2F1 (CDF1) mice

O=C1c2c(O)ccc(O)c2C(=O)c2c(NCCNCCO)ccc(NCCNCCO)c21
T/C (dose: 2.5 mg/kg/injection, schedule: Q01DX009 (ip), vehicle: water): 122 % of control and 93 % of control
T/C (dose: 2.5 mg/kg/injection, schedule: Q01DX009 (sc), vehicle: acid diluted with saline): 92 % of control
T/C (dose: 2.59 mg/kg/injection, schedule: Q04DX002 (ip), vehicle: water): 191 % of control
T/C (dose: 2.7 mg/kg/injection, schedule: Q04DX003 (ip), vehicle: saline): 283 % of control and 412 % of control
T/C (dose: 2.7 mg/kg/injection, schedule: Q04DX003 (ip), vehicle: water): 272 % of control and 330 % of control
T/C (dose: 3.0 mg/kg/injection, schedule: Q01DX001 (ip), vehicle: saline): 266 % of control
T/C (dose: 3.0 mg/kg/injection, schedule: Q01DX001 (iv), vehicle: saline): 158 % of control
T/C (dose: 3.0 mg/kg/injection, schedule: Q04DX002 (ip), vehicle: distilled water + Tween-80): 277 % of control
T/C (dose: 3.0 mg/kg/injection, schedule: Q04DX002 (ip), vehicle: saline): 254 % of control
T/C (dose: 3.0 mg/kg/injection, schedule: Q04DX003 (ip), vehicle: saline): 362 % of control [middle of 4 runs]
T/C (dose: 3.0 mg/kg/injection, schedule: Q04DX003 (ip), vehicle: water): 150 % of control and 203 % of control
T/C (dose: 3.0 mg/kg/injection, schedule: Q04DX003 (iv), vehicle: saline): 187 % of control
T/C (dose: 3.13 mg/kg/injection, schedule: Q01DX009 (ip), vehicle: water): 90 % of control
T/C (dose: 3.2 mg/kg/injection, schedule: Q01DX009 (ip), vehicle: acid diluted with saline): 97 % of control
T/C (dose: 3.24 mg/kg/injection, schedule: Q01DX001 (ip), vehicle: saline): 560 % of control
T/C (dose: 3.24 mg/kg/injection, schedule: Q01DX001 (iv), vehicle: saline): 224 % of control
T/C (dose: 3.6 mg/kg/injection, schedule: Q01DX005 (ip), vehicle: saline): 96 % of control
T/C (dose: 3.6 mg/kg/injection, schedule: Q04DX002 (ip), vehicle: water): 215 % of control and 409 % of control
T/C (dose: 3.6 mg/kg/injection, schedule: Q04DX003 (ip), vehicle: saline): 250 % of control and 289 % of control
T/C (dose: 3.6 mg/kg/injection, schedule: Q04DX003 (iv), vehicle: saline): 97 % of control
T/C (dose: 4.0 mg/kg/injection, schedule: Q01DX005 (ip), vehicle: saline): 116 % of control
T/C (dose: 4.0 mg/kg/injection, schedule: Q01DX009 (ip), vehicle: water): 96 % of control [middle of 4 runs]
T/C (dose: 4.0 mg/kg/injection, schedule: Q04DX002 (ip), vehicle: water): 297 % of control and 390 % of control
T/C (dose: 4.0 mg/kg/injection, schedule: Q04DX003 (ip), vehicle: saline): 247 % of control and 266 % of control and 424 % of control
T/C (dose: 4.0 mg/kg/injection, schedule: Q04DX003 (ip), vehicle: water): 194 % of control and 330 % of control
T/C (dose: 4.32 mg/kg/injection, schedule: Q04DX002 (ip), vehicle: water): 217 % of control
T/C (dose: 4.4 mg/kg/injection, schedule: Q04DX003 (ip), vehicle: acid diluted with saline): 450 % of control
T/C (dose: 4.5 mg/kg/injection, schedule: Q01DX001 (ip), vehicle: acid diluted with saline): 571 % of control
T/C (dose: 4.5 mg/kg/injection, schedule: Q04DX003 (ip), vehicle: saline): 275 % of control
T/C (dose: 5.0 mg/kg/injection, schedule: Q01DX005 (ip), vehicle: water): 111 % of control
T/C (dose: 5.0 mg/kg/injection, schedule: Q04DX003 (ip), vehicle: saline): 432 % of control
T/C (dose: 5.4 mg/kg/injection, schedule: Q01DX001 (ip), vehicle: saline): 560 % of control
T/C (dose: 5.4 mg/kg/injection, schedule: Q01DX001 (iv), vehicle: saline): 203 % of control
T/C (dose: 6.0 mg/kg/injection, schedule: Q01DX001 (ip), vehicle: saline): 401 % of control
T/C (dose: 6.0 mg/kg/injection, schedule: Q01DX001 (iv), vehicle: saline): 178 % of control
T/C (dose: 6.0 mg/kg/injection, schedule: Q04DX002 (ip), vehicle: distilled water + Tween-80): 104 % of control
T/C (dose: 6.0 mg/kg/injection, schedule: Q04DX003 (ip), vehicle: saline): 231 % of control and 382 % of control
T/C (dose: 6.0 mg/kg/injection, schedule: Q04DX003 (iv), vehicle: saline): 212 % of control and 90 % of control
T/C (dose: 6.7 mg/kg/injection, schedule: Q01DX001 (ip), vehicle: acid diluted with saline): 514 % of control
T/C (dose: 6.7 mg/kg/injection, schedule: Q04DX003 (ip), vehicle: acid diluted with saline): 450 % of control
T/C (dose: 7.2 mg/kg/injection, schedule: Q04DX002 (ip), vehicle: water): 237 % of control
T/C (dose: 8.0 mg/kg/injection, schedule: Q04DX003 (ip), vehicle: saline): 180 % of control and 229 % of control
T/C (dose: 9.0 mg/kg/injection, schedule: Q01DX001 (ip), vehicle: saline): 439 % of control
T/C (dose: 9.0 mg/kg/injection, schedule: Q01DX001 (iv), vehicle: saline): 105 % of control
T/C (dose: 10.0 mg/kg/injection, schedule: Q01DX001 (ip), vehicle: other): 440 % of control
T/C (dose: 10.0 mg/kg/injection, schedule: Q04DX002 (ip), vehicle: water): 92 % of control
T/C (dose: 10.0 mg/kg/injection, schedule: Q04DX003 (ip), vehicle: saline): 93 % of control
T/C (dose: 12.0 mg/kg/injection, schedule: Q01DX001 (iv), vehicle: saline): 225 % of control
T/C (dose: 12.0 mg/kg/injection, schedule: Q04DX002 (ip), vehicle: saline): 108 % of control
T/C (dose: 12.0 mg/kg/injection, schedule: Q04DX003 (ip), vehicle: saline): 106 % of control and 117 % of control
T/C (dose: 24.0 mg/kg/injection, schedule: Q01DX001 (ip), vehicle: saline): 223 % of control
T/C (dose: 32.0 mg/kg/injection, schedule: Q01DX001 (iv), vehicle: acid diluted with saline): 90 % of control
T/C (dose: 32.0 mg/kg/injection, schedule: Q04DX003 (ip), vehicle: saline): 96 % of control and 107 % of control
T/C (dose: 64.0 mg/kg/injection, schedule: Q04DX003 (ip), vehicle: saline): 92 % of control and 90 % of control and 91 % of control
T/C (dose: 7.0 micrograms/kg/injection, schedule: Q04DX003 (ip), vehicle: saline): 99 % of control
T/C (dose: 15.0 micrograms/kg/injection, schedule: Q04DX003 (ip), vehicle: saline): 94 % of control
T/C (dose: 31.0 micrograms/kg/injection, schedule: Q04DX003 (ip), vehicle: saline): 92 % of control
T/C (dose: 63.0 micrograms/kg/injection, schedule: Q04DX003 (ip), vehicle: saline): 102 % of control
T/C (dose: 125.0 micrograms/kg/injection, schedule: Q04DX003 (ip), vehicle: saline): 122 % of control
T/C (dose: 1000.0 micrograms/kg/injection, schedule: Q04DX003 (ip), vehicle: saline): 163 % of control
T/C (dose: 2000.0 micrograms/kg/injection, schedule: Q04DX003 (ip), vehicle: saline): 186 % of control
T/C (dose: 4000.0 micrograms/kg/injection, schedule: Q04DX003 (ip), vehicle: saline): 220 % of control
T/C (dose: 8000.0 micrograms/kg/injection, schedule: Q04DX003 (ip), vehicle: saline): 172 % of control
